82 compounds from PubChem BioAssay AID1346428 (National Center for Advancing Translational Sciences (NCATS), 2018) can be followed below.

Values joined by “and” are separate entries in the source; they are usually repeats but may differ in a detail not shown here. Equal entries are not always repeated. Hit rate of the full screen: of about 48,000 compounds, about 1,200 (2.5%) were called active. Inconclusive results (about 2%) are left out.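 Rule for the calls: active = activation of at least 60% and not above a set upper limit (about 1 call in 100 departs from these limits); inconclusive = activation of 40% to 60%, or above that upper limit; inactive = activation under 40%.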 The list shows a part of the results.

Chain of UniProt O75388 (O75388 whole entry, looked up): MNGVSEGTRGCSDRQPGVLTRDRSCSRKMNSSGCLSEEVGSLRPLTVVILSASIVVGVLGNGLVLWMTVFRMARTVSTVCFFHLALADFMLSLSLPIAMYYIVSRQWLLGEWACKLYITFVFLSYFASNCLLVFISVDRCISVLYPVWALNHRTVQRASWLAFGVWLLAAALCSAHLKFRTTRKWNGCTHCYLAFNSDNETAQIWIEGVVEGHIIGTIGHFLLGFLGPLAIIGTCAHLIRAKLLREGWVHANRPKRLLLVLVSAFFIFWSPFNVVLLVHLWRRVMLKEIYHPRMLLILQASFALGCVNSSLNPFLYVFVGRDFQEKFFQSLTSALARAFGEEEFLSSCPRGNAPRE

The experiment deals with Probable G-protein coupled receptor 32 (Homo sapiens) (UniProt O75388). The experiment in a line: qHTS for Agonists of Human Resolvin D1 Receptor DRV1. Note: 0% is about no effect. The conditions noted are these: CHO-K1 GPR32 beta-arrestin PathHunter luminescence, 90 min; at 76.9 µM; hits give high values; zero percent set by DMSO-only wells. Summed up:
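PathHunter beta-arrestin recruitment in CHO-K1 cells stably expressing ProLink-tagged GPR32. Cells were exposed to compound for 90 min at 37 C, then chemiluminescence was read after 1 h detection at ambient temperature; DMSO served as basal control.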
In general terms: qHTS replaces the single test concentration by a dilution series.
With `CCOc1cc(C(=O)N(Cc2nc(-c3ccc(C)cc3)no2)C(C)C)cc(OCC)c1OCC`, the activation was inactive: -14.1%. For the compound `CCc1cnc2c(c1SCc1c(F)cccc1Cl)c(=O)n(C)c(=O)n2C`, the activation was inactive: -15%. In the case of `Cc1oc(-c2ccccc2)nc1Cn1c(SCc2cccc(C(F)(F)F)c2)nc2cccnc21`, the activation was inactive: -12.8%. The same measure for `CCc1ccccc1Nc1nn2c(=O)c3ccc(C(=O)NC4CCC(C)CC4)cc3nc2s1` (configuration not stated): inactive: -2.5%; for `CC(=O)Nc1ccc(S(=O)(=O)NCc2ccc3c(c2)CCN3C(C)=O)cc1`: inactive: -2.35%. Take `COc1ccc(CCNC(=O)CCCn2c(=O)c3ccccc3n(CC(=O)Nc3cccc(C)c3)c2=O)cc1OC`: the activation is inactive: -4.95%. As for `CCOC(=O)c1c(NC(=O)c2ccc(S(=O)(=O)N3CCC(C)CC3)cc2)sc2c1CCN(C(C)C)C2`, the figure is active: 78%; as for `COc1ccc(C(=O)Nc2cnc3ccccn3c2=O)cc1`, inactive: -1.06%; as for `Cc1nn(C(=O)COc2ccc(Cl)cc2)c(C)c1Sc1ccccc1`, inactive: 16.1%.

In the case of `CCOC(=O)c1ccc(NC(=O)CC2C(=O)N(c3ccccc3)C(=O)N2Cc2ccc(C)cc2)cc1` (configuration not stated), the activation is inactive: -9.62%. The same measure for `C[C@@H]1C[C@H]2[C@@H]3CCC4=CC(=O)C=C[C@]4(C)[C@@]3(Cl)[C@@H](O)C[C@]2(C)[C@@]1(OC(=O)c1ccco1)C(=O)CCl`: inactive: 16.4%; for `CCOc1ccc(NC(=O)c2ccc3c(SCC(=O)O)c4c(nc3c2)CCC4)cc1`: inactive: -2.43%. The same measure for `COc1ccc(OC)c(C2c3c(-c4ccc(Br)cc4)n[nH]c3C(=O)N2c2ccc(Cl)cc2)c1` (configuration not stated): inactive: -7.08%; for `CCOC(=O)[C@H](CCc1ccccc1)N[C@@H](C)C(=O)N1C(=O)N(C)C[C@H]1C(=O)O`: inactive: 0.224%; for `CN1CCCN(C(c2ccccc2)c2ccc(Cl)cc2)CC1` (configuration not stated): inactive: 0.968%. The same measure for `CCOc1ccccc1-c1noc(CSc2nnc(-c3ccccc3)n2-c2cccc(C)c2)n1`: inactive: -4.32%; for `CCOC(=O)c1c(Nc2cccc(C(=O)OC)c2)nnc(-c2ccccc2)c1-c1ccccc1`: inactive: -6.09%. For the compound `CCOc1ccc(S(=O)(=O)NCC(c2ccco2)S(=O)(=O)c2ccc(C)cc2)cc1` (configuration not stated), the activation is inactive: -14.7%. As for `COc1ccccc1C(=O)Nc1ccc(NC(=O)c2cccs2)cc1`, the figure is inactive: -2.99%; as for `O=C(Nc1cccc(C(F)(F)F)c1)N1CCC(CN2CCCCCC2)CC1`, inactive: -20.5%. As for `CCOc1ccccc1NC(=O)COC(=O)c1cn(CC)c2nc(C)ccc2c1=O`, the figure is inactive: -2.66%; as for `COc1cc(-c2nc3ccccn3c2Nc2ccccc2C)ccc1O`, inactive: 18.2%; as for `CCOC(=O)c1cnc2c(cnn2CC)c1NN=C(C)C`, inactive: 12.1% and inactive: -22%.

Take `COc1ccccc1NC(=O)N1CCN(c2nnc(C)c3c(C)n(-c4ccc(Cl)cc4)nc23)CC1`: the activation was inactive: -6.61%. As for `COc1ccc(CC(=O)NCCc2sc(-c3ccc(Cl)cc3)nc2C)cc1OC`, the figure is active: 91.5%. For the compound `CC1CCc2c(sc(NC(=O)Cn3nnc(-c4ccc(C(F)(F)F)cc4)n3)c2C#N)C1` (configuration not stated), the activation is inactive: 15.8%. Regarding `COc1ccccc1CNS(=O)(=O)c1ccc(-c2cc(C(F)(F)F)on2)s1`, the activation was inactive: -10.6%. The same measure for `CC1CCN(c2cc3c(cc2F)c(=O)c(S(=O)(=O)c2cccc(Cl)c2)cn3Cc2ccccc2)CC1`: inactive: -9.45%; for `Cn1nc(-c2ccccc2F)c2cc(C(=O)NCc3ccc(Cl)cc3)sc21`: inactive: -5.62%; for `COc1ccc(NC(=O)C(=O)NCCc2sc(-c3ccc(Cl)cc3)nc2C)cc1`: inactive: 6.78%. As for `COc1ccc(C2=C(C(C)=O)Sc3nnc(-c4ccc(C)cc4)n3N2C(C)=O)cc1OC`, the figure is inactive: -40.4%; as for `Clc1ccc(Nc2c(-c3cccs3)nc3ccc(Cl)cn23)cc1`, inactive: -30.4%.

As to `COc1ccc(CCNC(=O)Cn2c(=O)cc(C(F)(F)F)c3c(C)nn(C)c32)cc1OC`, the activation is inactive: 18.7%. The same measure for `CCOC(=O)c1sc2nc(C)n(CC(=O)Nc3cccc(Cl)c3)c(=O)c2c1C`: inactive: 14.4%. The same measure for `Cc1ccc(C)c(CSC2=NC(C)(C)Nc3ccccc32)c1`: inactive: -23.6%; for `COc1ccc(CN(C)S(=O)(=O)c2nnc(NC(=O)C(C)C)s2)cc1OC`: inactive: 4.28%; for `CC(=O)c1cccc(NC(=O)CSc2nnc3ccc(-c4ccc(Cl)cc4)nn23)c1`: inactive: -9.89%. As for `CCc1cccc(NC(=O)c2cc3c(=O)[nH]c4ccccc4c3n2C)c1`, the figure is inactive: 49%; as for `Cc1ccc(Cl)cc1NC(=O)c1sc2nc(-c3ccccc3)cn2c1C`, inactive: -12.4%; as for `COc1ccccc1NC(=O)C1=C(C)Nc2nc(SCc3ccccc3F)nn2C1c1cccnc1` (configuration not stated), inactive: 25.2%.

On to `O=C(O)c1ccccc1O`, for which the activation is inactive: -7.85%. The same measure for `C=CCc1c(C)nc2nc(SCC(=O)Nc3cccc(Cl)c3)nn2c1C`: inactive: 8.68%.

`CC(C)CN(CC(C)C)c1nc(-c2ccc(Cl)cc2)nc2ccccc12`: the activation was inactive: 21.5%. In the case of `CCOC(=O)c1c(C)oc2nc(C)nc(N(CC(C)C)CC(C)C)c12`, the activation was inactive: -16.3%. On to `Cc1c(Cl)cccc1NC(=O)c1ccc2c(c1)nnn2C1CCCC1`, for which the activation was inactive: 4.24%.

On to `CO/N=C(/C(=O)N[C@@H]1C(=O)N2C(C(=O)O)=C(Cn3nnc(C)n3)CS[C@H]12)c1csc(N)n1`, for which the activation is inactive: 6.16%.

Consider `O=C(NCCCN1CCN(c2ccc(F)cc2)CC1)C1COc2ccccc2C1` (configuration not stated), for which the activation is inactive: -2.06%. Turning to `COc1ccc(Cl)cc1NC(=O)Cn1c(=O)n(Cc2nc(C)no2)c(=O)c2ccccc21`, the activation is inactive: -14.4%. The same measure for `CCc1ccc(NC(=O)c2ccc3c(=O)n4nc(Nc5ccccc5C)sc4nc3c2)cc1`: inactive: -0.139%; for `O=C(CCS(=O)(=O)c1ccccc1)N(Cc1cccnc1)c1nc2c(Cl)cccc2s1`: inactive: -26.9%.

On to `O=C(Nc1ccccc1C(=O)OCc1cc(=O)n2c3c(sc2n1)CCCC3)c1ccccc1`, for which the activation was inactive: -12.4%. Consider `CC(=O)N1c2ccc(S(=O)(=O)N3CCCCCC3)cc2CC1C(=O)NCc1ccccc1` (configuration not stated), for which the activation was inactive: -0.748%. `COc1cc2ncnc(Nc3cccc(Cl)c3)c2cc1OC`: the activation was inactive: 0.813%.

`NNc1nnc(NN)c2ccccc12`: the activation is inactive: 9.57%. With `COc1cc2c(cc1OC)C(COc1ccc3c(C)cc(=O)oc3c1)N(C(=O)c1cccc(OC)c1OC)CC2` (configuration not stated), the activation was inactive: -11.2%. In the case of `COCCn1c(C)cc(O)c(C(c2ccccc2)N2CCN(CCO)CC2)c1=O` (configuration not stated), the activation is inactive: 1.84%. For the compound `CCOc1ccc(NC(=O)N2CCC(CN3CCCCCC3)CC2)cc1`, the activation is inactive: -10.2%.

As to `Cc1cccc(N2CCN(C(=O)c3ccc4c(c3)c(C)c(C)n4C)CC2)c1C`, the activation is inactive: -0.203%. With `Cc1cc(C)cc(NC(=O)CSc2oc(-c3ccco3)nc2S(=O)(=O)c2ccccc2)c1`, the activation was inactive: -20.8%. The same measure for `O=C(Nc1ccccc1OCc1cc(=O)n2ccccc2n1)c1cccc(Br)c1`: inactive: -9.85%. As for `COc1ccc2c(c1)c1c(c(=O)n(Cc3ccccc3)c(=O)n1CC(=O)Nc1cc(C)cc(C)c1)n2C`, the figure is inactive: 13.6%; as for `Clc1ccc(OCc2nc(-c3ccc(-n4cccc4)cc3)no2)cc1`, inactive: -4.17%.

With `Cc1ccc(Cl)cc1NC(=O)CCCn1c(=O)c2cccn2c2ccccc21`, the activation was inactive: -13.7%.

Take `Cc1ccc2c(n1)sc1c(=O)n(-c3cccc(C(F)(F)F)c3)nnc12`: the activation was inactive: 42.2%. As for `COc1ccc(-c2nc3scc(CCNS(=O)(=O)c4cc(F)ccc4OC)n3n2)cc1OC`, the figure is inactive: -19.9%; as for `CN(C(=O)CSc1nnc(-c2ccc([N+](=O)[O-])cc2)o1)C1CCCCC1`, inactive: 20.4%; as for `Cc1ccc(CN2CCSc3ccc(C(=O)Nc4cc(C)cc(C)c4)cc32)cc1`, inactive: -12.9%. As for `CC(=O)N1CCc2c(sc3nc(SCC(N)=O)n(-c4ccc(F)c(Cl)c4)c(=O)c23)C1`, the figure is inactive: -9.95%.

In the case of `Cc1ccc(CCNC(=O)CCCn2c(=O)c3ccccc3n(CC(=O)Nc3cc(Cl)ccc3C)c2=O)cc1`, the activation was inactive: -12.5%. The same measure for `COc1ccc(CCNC(=O)c2ccc3c(c2)sc2nc(-c4ccc(C)cc4)cn23)cc1OC`: inactive: -3.59%; for `CCOc1ccc(Nc2c(S(=O)(=O)c3ccc(C)cc3)cnc3cc(OC)c(OC)cc23)cc1`: inactive: -45%. Consider `COc1ccccc1NC(=O)CSC1=Nc2ccccc2C2=NC(CC(=O)NCCc3ccccc3)C(=O)N12` (configuration not stated), for which the activation is inactive: -9.28%. As to `Cc1ccc(NC(=O)C2CCN(S(=O)(=O)c3ccc4c(c3)CCCC(=O)N4)CC2)c(Cl)c1`, the activation is inactive: 14.8%. As to `COc1cc(NS(=O)(=O)c2ccc3c(c2)CC(=O)N3)cc(OC)c1OC`, the activation was inactive: -2.37%. As to `CCc1ccccc1NC(=O)Cn1nnc(-c2nc(-c3ccncc3)no2)c1N`, the activation was inactive: -17.6%. For `O=C(NC1(C(F)(F)F)C(=O)Nc2c1c(=O)[nH]c(=O)n2CCc1ccccc1)c1ccc(Cl)cc1` (configuration not stated), the activation was inactive: -14.6%. `O=C(NCc1ccccc1Cl)c1ccc2c(c1)nnn2C1CCCC1`: the activation was inactive: -10.3%. In the case of `Cc1ccc(NC(=O)c2c(C)oc3ncn(C)c(=O)c23)cc1F`, the activation is inactive: -9.36%. `COc1cccc2c1Oc1ncccc1N(c1ccc(C(=O)NCc3ccccc3C)s1)C2`: the activation is inactive: -17.2%. The same measure for `CCOc1ccc(NC(=O)CN2CCN(CC(=O)Nc3ccc(N(CC)CC)cc3)CC2)cc1`: inactive: -12.7%; for `COc1cc(NS(=O)(=O)c2ccc3[nH]c(=O)[nH]c3c2)cc(OC)c1`: inactive: 7.33%.

For `CCCCC(=O)Nc1ccc2nc(SCC(=O)N3CCOCC3)sc2c1`, the activation was inactive: -11%.
